From the supplement of paper PMC12217912
The other results are listed elsewhere or left out. Sequences were assembled here from the parent chain. Values near 0.05 are background.

B1: TEV protease; numbered along this chain (parent)
chain: MGESLFKGPRDYNPISSSICHLTNESDGHTTSLYGIGFGPFIITNKHLFRRNNGTLVVQSLHGVFKVKDTTTLQQHLVDGRDMIIIRMPKDFPPFPQKLKFREPQREERICLVTTNFQTKSMSSMVSDTSCTFPSGDGIFWKHWIQTKDGQCGSPLVSTRDGFIVGIHSASNFTNTNNYFTSVPKNFMELLTNQEAQQWVSGWRLNADSVLWGGHKVFMVKPEEPFQPVKEATQL

Variants of: B1
Experiment: raw area under fraction-flipped curve 0-4 h after induction (AUC4h, not background-subtracted), DNA-recorder readout of cleavage of the substrate (dimensionless); higher = more cleavage of the substrate by the protease variant
Conditions: temperature: 34 °C; time window: 0-4 h after rhamnose induction
Protocol: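 In vivo DNA recorder in E. coli TOP10(DE3) ΔrhaA at 34 °C. Each TEVp single-site mutant (parent TEVp 0) is paired with a single-site variant of the 7-mer TEVs (canonical ENLYFQ|S). The substrate sits between flexible linkers in a Bxb1-sfGFP-TEVs-SsrA fusion, so cleavage stabilises Bxb1 and speeds flipping of a recombination array, read by NGS. The value is the raw area under the fraction-flipped curve over 0-4 h after rhamnose induction (AUC4h), with ≥20 reads per time point. It is not background-subtracted; inactive controls average about 0.047.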
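Note: Bxb1 expression induced with 0.2% (w/v) L-rhamnose at OD600 near 0.5, cultures sampled hourly, flipped fraction per protease–substrate barcode pair counted by paired-end Illumina sequencing.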

| Variant | area with substrate ENLYFQA | area with substrate ENLYFQC | area with substrate ENLYFQG | area with substrate ENLYFQI | area with substrate ENLYFQK | area with substrate ENLYFQL | area with substrate ENLYFQM | area with substrate ENLYFQN | area with substrate ENLYFQQ | area with substrate ENLYFQR | area with substrate ENLYFQS | area with substrate ENLYFQV | area with substrate ENLYFQW | area with substrate ENLYFQY | area with substrate ENLYFQD | area with substrate ENLYFQT | area with substrate ENLYFQH | area with substrate ENLYFQP | area with substrate ENLYFQF | area with substrate ENLYFQE |
| --- | --- | --- | --- | --- | --- | --- | --- | --- | --- | --- | --- | --- | --- | --- | --- | --- | --- | --- | --- | --- |
| Q59I | 0.0962 | 0.115 | 0.145 | 0.0373 | 0.0638 | 0.0457 | 0.112 | 0.0736 | 0.0803 | 0.0586 | 0.106 | 0.0733 | 0.0648 | 0.077 |  |  |  |  |  |  |
| T70I | 0.0531 |  |  | 0.0754 | 0.0479 | 0.062 | 0.0664 | 0.0677 |  | 0.0593 | 0.0781 |  | 0.0646 |  | 0.046 | 0.0619 |  |  |  |  |
| N53C | 0.0934 | 0.112 |  |  | 0.0771 |  | 0.0794 | 0.0791 |  | 0.0618 | 0.093 | 0.0584 | 0.0079 | 0.0913 | 0.0702 | 0.0654 |  |  |  |  |
| N53V | 0.0751 | 0.0598 | 0.078 | 0.0633 |  | 0.0576 | 0.067 | 0.0729 |  | 0.0476 | 0.0801 |  | 0.0656 | 0.0587 | 0.0573 | 0.0543 | 0.0672 |  |  |  |
| G54V | 0.0615 | 0.0327 | 0.072 | 0.0488 |  | 0.0544 | 0.0668 | 0.0509 | 0.0507 | 0.0513 | 0.0672 |  | 0.0633 | 0.0536 |  | 0.0515 | 0.0659 | 0.0588 |  |  |
| G54Q | 0.0873 | 0.0669 | 0.0544 | 0.0741 |  | 0.0543 | 0.0662 | 0.0574 |  | 0.0534 | 0.0705 | 0.0639 | 0.0664 | 0.0769 | 0.0546 |  | 0.0534 |  | 0.0639 |  |
| L77Y | 0.0654 |  | 0.0709 | 0.0449 | 0.0627 | 0.0557 | 0.0698 | 0.0666 |  | 0.055 | 0.0612 | 0.0753 | 0.0775 | 0.0504 |  |  | 0.0684 |  |  |  |
| L77I | 0.0868 | 0.0856 | 0.0781 | 0.0534 |  | 0.0576 | 0.0639 | 0.0794 |  | 0.0606 | 0.0874 | 0.074 | 0.0694 | 0.0469 | 0.065 | 0.0668 |  | 0.0495 |  |  |
| L77H | 0.0551 | 0.0774 | 0.0724 |  | 0.0399 | 0.0547 | 0.0685 |  |  | 0.0469 | 0.0679 |  | 0.0277 |  | 0.0537 | 0.0693 | 0.062 | 0.0626 | 0.0459 |  |
| N52P | 0.0658 | 0.0477 | 0.0534 | 0.0606 |  | 0.0516 |  | 0.0632 | 0.071 | 0.0839 | 0.0734 | 0.0569 |  |  | 0.0694 | 0.0602 |  | 0.0587 | 0.0567 |  |
| N52V | 0.0704 | 0.068 | 0.0661 | 0.047 | 0.0595 | 0.068 | 0.0649 | 0.0718 | 0.0697 | 0.0555 | 0.0712 | 0.0649 | 0.0504 |  | 0.0578 | 0.0572 | 0.0675 | 0.0221 |  |  |
| N52C | 0.0755 | 0.0692 |  | 0.0727 | 0.0578 | 0.0654 | 0.076 | 0.064 |  | 0.0568 | 0.0745 |  | 0.0594 |  | 0.0436 | 0.0601 | 0.07 |  |  |  |
| D69E | 0.0731 | 0.108 |  |  |  |  | 0.0971 |  | 0.0599 | 0.0675 | 0.0887 | 0.0569 | 0.125 | 0.0871 |  | 0.0633 | 0.099 |  |  |  |
| Q75K | 0.0826 | 0.083 |  | 0.0437 |  |  | 0.0587 | 0.0738 |  | 0.0744 | 0.0708 |  | 0.06 | 0.0592 | 0.0761 | 0.0621 | 0.0428 | 0.0784 | 0.0523 |  |
| Q75F | 0.0982 | 0.106 | 0.0923 | 0.0577 | 0.0605 | 0.0496 | 0.0783 | 0.0544 |  | 0.0625 | 0.0992 | 0.0747 |  | 0.0784 | 0.0682 | 0.0603 | 0.0683 |  |  |  |
| K66L | 0.0917 | 0.165 | 0.111 | 0.0617 | 0.0616 | 0.0494 | 0.0847 | 0.0766 |  | 0.065 | 0.104 | 0.0552 | 0.0603 | 0.0833 | 0.0686 | 0.07 | 0.0846 | 0.0524 | 0.107 | 0.0651 |
| R50K | 0.0719 | 0.0961 | 0.0935 | 0.0573 | 0.0588 | 0.0597 | 0.0667 | 0.0793 |  | 0.0405 | 0.0995 | 0.0631 | 0.054 | 0.0603 |  | 0.0573 |  | 0.0606 |  |  |
| H76R | 0.0855 | 0.0844 | 0.0656 | 0.0402 | 0.0285 | 0.0495 | 0.0685 | 0.062 | 0.0668 |  | 0.0778 |  | 0.0656 | 0.0676 | 0.0629 | 0.0493 | 0.0573 |  | 0.0863 |  |
| F49M | 0.0814 | 0.0623 | 0.0681 |  | 0.0624 | 0.0612 | 0.0578 | 0.0559 | 0.0707 | 0.0586 | 0.0694 | 0.0658 | 0.0706 | 0.0497 | 0.0549 | 0.0581 | 0.0608 | 0.0606 | 0.0445 | 0.0601 |
| T55S | 0.0853 | 0.122 | 0.0575 | 0.0738 |  | 0.0621 | 0.0986 | 0.0812 |  | 0.0605 | 0.103 | 0.0546 | 0.0535 | 0.0656 | 0.0626 | 0.0733 | 0.101 |  |  |  |
| F65G | 0.0869 |  | 0.0789 |  | 0.0377 |  | 0.0806 |  | 0.053 | 0.0477 | 0.0899 |  |  |  |  | 0.0646 | 0.0631 |  | 0.0749 |  |
| F65L | 0.121 | 0.17 |  |  | 0.0561 | 0.0455 | 0.0817 |  | 0.0492 | 0.0835 | 0.108 |  |  |  | 0.0655 |  | 0.073 |  |  |  |
| T71E | 0.0957 |  |  | 0.0524 | 0.063 | 0.0642 | 0.0919 |  |  | 0.0954 | 0.0841 | 0.0842 | 0.064 | 0.0695 | 0.0604 | 0.0658 | 0.0735 | 0.0574 |  |  |
| L61W | 0.092 | 0.104 | 0.071 | 0.0739 | 0.0647 | 0.0219 | 0.072 | 0.0733 | 0.0698 | 0.0642 | 0.0949 | 0.0597 | 0.0604 | 0.0808 |  | 0.0507 |  | 0.0544 |  | 0.06 |
| L61H | 0.12 | 0.133 | 0.109 | 0.0547 | 0.0636 |  |  | 0.0589 |  | 0.0581 | 0.105 |  | 0.0808 | 0.0729 | 0.0688 | 0.0713 | 0.0739 | 0.0498 |  |  |
